Measurements taken from the supplement of paper PMC11417369.
The other results are listed elsewhere or left out.

Tested on: PfSIP2 AP2 domain 1 (GST-tagged)
Assay: gcPBM binding intensity (ln(normalized median fluorescence intensity)); higher = stronger DNA binding
How it was run: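 Binding of GST-tagged P. falciparum DNA-binding domains, expressed in E. coli and used at about 25 μg on average, was carried out for 1 h in 1× PBS containing 1% milk, 0.2 mg/ml BSA, 0.5% salmon testes DNA and 0.03% Triton X-100. The target was an Agilent 4 × 180k array of primer-extended double-stranded 36-bp intergenic genomic probes plus negative controls, read with Alexa488 anti-GST antibody at 488 nm. Binding intensity is the highest Masliner-normalised natural-log median intensity across replicate spots of either probe orientation.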

Sequence | gcPBM binding intensity (ln)
TTGGTACCTATAGATACACACATATATACATATATA [CACACA_site3402] | 7.03
TAAGAGTAGTTATATACACACATGTATATTATAGTT [CACACA_site6815] | 6.84
TATATATATATATTATGTACGTATCAGTTTGTATGT [XGTACX_site695] | 9.22
CACGACATTAACAATACATGCAGAAAAACAAAAAAT [TGCATGCA_site689] | 7.15
TTATAAATTAGAGGTACACACAAAAAAAAAAAGAAA [CACACA_site6740] | 7.27
ATTTTTAATATTATTACACACACTAAAAAAAAAAAA [CACACA_site1067] | 7.06
TATAAGAGAAGAAGAAAAAAAAGGTTTCTATAGAAA [XGTACX_negctrl_site421] | 6.59
CATATAGTAATATATACACACACTTGTCTTGTAAAA [CACACA_site8238] | 6.89
AAGAAGCATAAATGTACACACATATTTATATATTAA [CACACA_site1332] | 7.04
ATATTTATAATTTTTTGTACACATTTTTTAAAGATA [XGTACX_site1784] | 7.27
TACATATAAATATATAAATATAAATAAATAAATAAA [XGTACX_negctrl_site180] | 6.93
TTTTTTTTTTTTTTTGCACACACATTGAATTATTAT [CACACA_site198] | 7.41
AAATGGAAAAGGTGTACACAAAAAAAAGGGAAAAGC [CACACA_site5331] | 7.83
TTACCAAAAACCTCAAGTACAAAAAATCCCTAATAT [XGTACX_site2313] | 6.95
CTTTATATATAGTGTACACATTAAACAAATCTCAAT [CACACA_site5845] | 7.42
ATAGTATACAGACACACACACACACGGATATAAATA [CACACA_site6914] | 7.17
ATATATATATATATATGTACTAAATATTCATCCTTA [XGTACX_site6039] | 9.48
AAGTTTAAGAAATAATTCATATTTACTTCCATCCTC [GTGCAC_negctrl_site494] | 6.67
ATACGAAAATATTTTGCACACTATAATTATTCATAT [CACACA_site1765] | 7.46

Sequence | gcPBM binding intensity (ln)
TTTCCCTACCAAAAGTGTACTTATACATATTTTTAT [XGTACX_site5495] | 7.38
AAAAAAAAAAAAAAAGTGCATTAATAAATTTTAATA | 9.57
ACATCTATGTATAATACACACACTAATATATAATTG [CACACA_site5134] | 6.94
ACATATTATTCTTCTTGTACACATAAATTTTATAAA [XGTACX_site299] | 7.51
TTTTTTTCATAATATACACACAAAAAAAAAAAAAAA [CACACA_site3224] | 7.09
TATACTCATATATAAACACACAAAAAAAAAAAAAAA [CACACA_site5165] | 7
ATATATATATATATGTGTACATATATATATCATATG [XGTACX_site3126] | 9.35
TCTTATAATTTACCTACACACAGGAAATATATAAAT [CACACA_site294] | 7
TCAGAAATATTACAAAGTACATGCAACGAAAATTTC [XGTACX_site5061] | 6.83
ACACAATGTAGTGTATAAATACAATAAAAGGTTGTA [TGCATGCA_negctrl_site251] | 6.7
TGATATTTAAATTTTGCACACGCATATGAAATTAGG [CACACA_site1034] | 7.37
ATGACGTAGTGGTGTACACACATGGTACCTTTATTC [CACACA_site1547] | 7.21
AAAAAAATATTCAAAGCATGCCTATTTACACATATT [TGCATGCA_site806] | 6.83
TCTATTATCCTTTGCACACAAAATAAATGAAAAAAT [CACACA_site3029] | 7.83
ATATAAGTTTTTTCTCAAAAAGTATAACGAGCATGA [CACACA_negctrl_site1375] | 7.21
TTTGATAAATGATACACACACAATATTTATAAAATA [CACACA_site7040] | 6.92
ACATTATATAAATATATACATATATATATATATAAA [GTGCAC_negctrl_site115] | 7.3
CCCACGTATATTTTGTGTACATAAATAAATAAATAA [XGTACX_site4046] | 7.43
TGTCATGATACATACACACACATACACATACACATA [CACACA_site2135] | 7.23

Sequence | gcPBM binding intensity (ln)
AAACAACAAAAATGATATATATAAAATTTATAATAT [XGTACX_negctrl_site185] | 6.93
TATTTAATTATATAAAATTAAATTTTTAATTCTTCC [CACACA_negctrl_site473] | 6.49
ATGCATAAAAGAAATACACACATAAATATATAAATA [CACACA_site2163] | 7.02
TATGGATTACACAATTGTACAAGAAAAATGTAAATA [XGTACX_site4040] | 7.13
TATTTATTTATTTTGTTATAATTAAAATGGATACAT [XGTACX_negctrl_site387] | 7.03
AGTAGTCTGGAGAAGAGTACATAGTATCTGGTAGCT [XGTACX_site2017] | 6.85
CTACACACTTATAAATGTACAGGATTTAAGTATATG [XGTACX_site8245] | 6.98
AAATATAATAATACATTGCACATATATTATATATAT [TGCATGCA_negctrl_site611] | 7.64
TGTAATAATCTTCATTTCTTTTTTTTTTTTTTTTGT [CACACA_negctrl_site1388] | 6.71
TAACTTAATAAAAAAAGTACATATATTTTTAATAAA [XGTACX_site2707] | 6.98
AGTGAATATTACGAAACACACAAAAAAATACATTTC [CACACA_site511] | 6.76
GTTTATATGTTCATAGTGCATATATGTTGATTTATT | 8.15
TTTTTTTTTTTTTACTGTACTTAATAAGATTGAATA [XGTACX_site2384] | 7.24
TATAAAAAAAAAAAAAAAAAAAAAAAAAAAAAAAAA [TGCATGCA_negctrl_site42] | 7.03
AAATTATAAAAATGTAGTACAGACAATATATTCGTA [XGTACX_site8307] | 7.34
ATAAATATTATTTTACGTACATATTTATGAAGTATT [XGTACX_site8746] | 7.47
CAGGAGAGAAAATATCGTACAAGCAAAAATAAGTGG [XGTACX_site8557] | 7.46
TATTATTTTAAGATTGTTTATGTAAAGAATTATGAA [CACACA_negctrl_site445] | 6.89
